Data on 22 molecules can be found in ChEMBL document CHEMBL5606458, “ASAP - ZIKV NS2B-NS3 protease fluorescence single point” (2024).

Out of some 2,700 compounds screened, about 160 (5.9%) showed an effect of 50% or more. This is one part of the list.

This assay addresses Nonstructural protein 3 (Zika virus) (UniProt A0A024AXB9).
[1] abbreviates: PRVABC59, Concentration 10.0 uM, Number of replicates 1.0.
Setting [2] is: PRVABC59, Concentration 15.0 uM, Number of replicates 1.0.
Setting [3] is: PRVABC59, Concentration 50.0 uM, Number of replicates 1.0.

Chain of UniProt A0A024AXB9 (A0A024AXB9 as listed by the source): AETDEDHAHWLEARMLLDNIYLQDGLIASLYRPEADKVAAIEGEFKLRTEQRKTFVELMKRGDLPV

For `CC[C@H](C)N(Cc1ccccc1)C(=O)C1CCN(c2ccc(C=O)cc2)CC1`, the inhibition under setting [1] was 26.6%. As to `Cn1cc(NC(=O)c2ccccc2C(F)(F)F)c(-c2ccccc2CO)n1`, the inhibition (PRVABC59, Concentration 49.5 uM, Number of replicates 2.0, Standard deviation 1.1938974234704913 %) was -0.442%; the inhibition (PRVABC59, Concentration 99.01 uM, Number of replicates 2.0, Standard deviation 1.523480341882225 %) is 1.31%; the inhibition (PRVABC59, Concentration 198.0 uM, Number of replicates 2.0, Standard deviation 2.1372444344514228 %) is 2.85%. For the molecule `CCN(CC)CCN(CCN(CC)CC)C(=O)c1cc(Cl)ccc1NS(=O)(=O)c1ccc(Oc2ccccc2Cl)cc1`, under setting [2], the inhibition turned out to be 12.8%. Turning to `CN(Cc1ccc(N2CCOCC2)cc1)C(=O)c1cc(Cl)ccc1NS(=O)(=O)c1ccc(Oc2ccccc2Cl)cc1`, the inhibition under setting [2] turned out to be 9.72%. With `CN1CCN(C[C@H]2CCCN(C(=O)c3cc(Cl)ccc3NS(=O)(=O)c3ccc(Oc4ccccc4Cl)cc3)C2)CC1`, the inhibition under setting [2] turned out to be 1.15%.

In the case of `c1cc(CN2CCC[C@H](c3c[nH]c4ccccc34)C2)c2[nH]ccc2c1`, the inhibition was determined as 2.39% (PRVABC59, Concentration 50.0 uM, Number of replicates 2.0, Standard deviation 4.969152467416127 %); 5.68% (PRVABC59, Concentration 100.0 uM, Number of replicates 2.0, Standard deviation 4.272227774773933 %); 0.564% (PRVABC59, Concentration 200.0 uM, Number of replicates 2.0, Standard deviation 6.212735946585718 %). Consider `O=Cc1ccc(N2CCC(C(=O)Nc3cccc(N4CCOCC4)c3)CC2)cc1`, for which the inhibition under setting [3] was 9.23%. On to `O=C(NCc1coc(-c2ccccc2)n1)c1cc(Cl)ccc1NS(=O)(=O)c1ccc(Oc2ccccc2Cl)cc1`, for which the inhibition under setting [2] was 45.4%. Take `O=Cc1ccc(N2CCC(C(=O)Nc3c(Cl)cccc3[N+](=O)[O-])CC2)cc1`: the inhibition under setting [3] turned out to be 21.7%.

For `c1ccc2c([C@H]3CCN(Cc4cc(-c5ccncc5)[nH]n4)C3)c[nH]c2c1`, the inhibition was determined as 1.13% (PRVABC59, Concentration 49.5 uM, Number of replicates 2.0, Standard deviation 2.8555238815628745 %); 6.82% (PRVABC59, Concentration 99.01 uM, Number of replicates 2.0, Standard deviation 3.4240925808481126 %); 15.2% (PRVABC59, Concentration 198.0 uM, Number of replicates 2.0, Standard deviation 2.908364523505892 %). `CN(C)CC[C@H]1CCCCN1C(=O)C1CCN(c2ccc(C=O)cc2)CC1`: the inhibition under setting [3] was 24.8%. On to `Cc1cc(CO)c2cccc(Cc3ccccc3NC(=O)COc3cccc(CN)c3)c2n1`, for which the inhibition runs as follows: (PRVABC59, Concentration 49.95 uM, Number of replicates 2.0, Standard deviation 1.5421673483547123 %) 8.84%; (PRVABC59, Concentration 99.9 uM, Number of replicates 2.0, Standard deviation 1.3284012301057624 %) 21.3%. Consider `O=C(NCC1(c2ccccc2)CCCC1)c1cc(Cl)ccc1NS(=O)(=O)c1ccc(Oc2ccccc2Cl)cc1`, for which, under setting [2], the inhibition turned out to be 30.9%. Consider `COc1cncc(-c2ccccc2C(=O)Nc2cnn(C)c2)c1`, for which the inhibition (PRVABC59, Concentration 49.5 uM, Number of replicates 2.0, Standard deviation 4.9130935342676665 %) is -2.29%; the inhibition (PRVABC59, Concentration 99.01 uM, Number of replicates 2.0, Standard deviation 3.43930152401436 %) stood at 0.018%; the inhibition (PRVABC59, Concentration 198.0 uM, Number of replicates 2.0, Standard deviation 1.7993335938018762 %) is 0.6%.

Regarding `O=Cc1ccc(N2CCC(C(=O)NCc3ccc4c(c3)OCCO4)CC2)cc1`, the inhibition under setting [1] was found to be 17%. On to `CCN(C(=O)C1CCN(c2ccc(C=O)cc2)CC1)C1C2CC3CC(C2)CC1C3` (stereo unspecified), for which, under setting [3], the inhibition amounted to 26.7%.

As for `CCCc1nn(C)c(C(N)=O)c1NC(=O)c1cc(Cl)ccc1NS(=O)(=O)c1ccc(Oc2ccccc2Cl)cc1`, the inhibition under setting [2] amounted to 20.9%. Take `CC(C)c1cccc(C(C)C)c1NC(=O)c1cc(Cl)ccc1NS(=O)(=O)c1ccc(Oc2ccccc2Cl)cc1`: the inhibition under setting [2] worked out at 29.3%. For the molecule `CN(C[C@H](O)[C@@H](O)[C@H](O)[C@H](O)CO)C(=O)c1cc(Cl)ccc1NS(=O)(=O)c1ccc(Oc2ccccc2Cl)cc1`, the inhibition under setting [2] turned out to be 3.12%.

Consider `O=Cc1ccc(N2CCC(C(=O)Nc3ccc4c(c3)OC(F)(F)O4)CC2)cc1`, for which, under setting [3], the inhibition is 19.3%. As to `C[C@H](NC(=O)C1CCN(c2ccc(C=O)cc2)CC1)c1ccc(S(C)(=O)=O)cc1`, under setting [1], the inhibition is 23.1%. Take `C[C@@H](Cc1ccc(C(F)(F)F)cc1)NC(=O)C1CCN(c2ccc(C=O)cc2)CC1`: the inhibition under setting [1] was determined as 14.8%.
